# Measurements reported in PubChem BioAssay AID1745853 (National Center for Advancing Translational Sciences (NCATS), 2022).
# Some of the results follow. Further columns of the screen follow, without active or inactive calls.
# Key:
# Test in all cases: Primary Screen for Target Class Profiling of Small Molecule Inhibitors of Methyltransferases
# [1] = biological target: Glycine N-methyltransferase (Homo sapiens) (UniProt Q14749); details: purified enzyme, MTase-Glo SAH luminescence; measured here: GNMT inhibition; at 40 µM; stronger effect = lower value
# Excerpt: (§1) PI: Matthew D. Hall Ph.D. and Quinlin M. Hanson Ph.D.
# (§2) National Center for Advancing Translational Sciences (NCATS)
# (§3) National Institute of Health (NIH), Rockville, MD
# (§4) Target class profiling (TCP) is a chemical biology approach amenable to investigating understudied biological targets. TCP is achieved by developing a generalizable assay platform and applying it to screen a curated set of compound libraries against representative members of a target class. Small molecule methyltransferases (SMMTase) are a subclass of methyltransferase that act on metabolites to modulate signaling pathways, metabolize xenobiotics, or balance the available methyl pool. We screened four curated libraries totaling 27,574 unique compounds against the SMMTases nicotinamide N-methyltransferase (NNMT), phenylethanolamine N-methyltransferase (PNMT), histamine N-methyltransferase (HNMT), glycine N-methyltransferase (GNMT), catechol O-methyltransferase (COMT), and guanidinoacetate N-methyltransferase (GAMT). The data generated by this TCP can be leveraged for informed tool molecule development. For example, in the associated publication we identified a chemotype of HNMT-selective inhibitors. Additionally, we identified a putative SMMTase-selective inhibitor with potential as a tool molecule for studying broader methyltransferase biology.
# (§5) High-through put screening assays were developed at the National Center for Advancing Translational Science (NCATS) for the enzymes NNMT, PNMT, HNMT, GNMT, COMT, and GAMT. Enzymatic activity was measured as a function of SAM cofactor conversion using the MTase Glo kit (Promega) for all enzymes. All assays were performed in 1536-well format with substrates and SAM concentrations at KM values. Enzyme concentration and assay timing were optimized for 10-20% SAM conversion. Initial screening of 27,574 compounds was done as single-point assays using the highest compound concentration (40 uM). […] These compounds were replated in 11-point dose response and assayed against NNMT, PNMT, HNMT, GNMT, COMT, GAMT, and a counter-assay. The IC50 and efficacy (maximal response) values were determined for each dose-response curve. These values are also accounted for in the area under the curve (AUC) values.
# (§6) PROTOCOL TABLE (as described by Inglese J, Shamu CE and Guy RK. 2007)
# (§7) SEQUENCE No. (e.g., 1, 2, 3, etc.); […] (e.g., Cells, Incubation, Reagent, etc.); VALUE; DESCRIPTION.
# (§8) 1; Reagent; 2 uL; SMMTase Enzyme (2x) in reaction buffer, columns 1- 48.
# (§9) 2; Reagent; 1 uL; SAM (4x) in reaction buffer, columns 1-48.
# (§10) 3; Controls; 23 nL; DMSO in column 4; sinefungin in DMSO (0 uM - 40 uM) in 7-point 1:2 dilution series (n = 2) in column 2.
# (§11) 4; Compounds; 23 nL; Columns 5-48.
# (§12) 5; Reagent; 1 uL; Substrate (4x) in reaction buffer, columns 2-48.
# (§13) 6; Time; 20-30 min; Incubation.
# (§14) 7; Reagent; 1 uL; MTase-Glo reagent (5X), columns 1-48.
# (§15) 8; Time; 30 min; Incubation.
# (§16) 9; Reagent; 5 uL; MTase-Glo Detection reagent, columns 1-48.
# (§17) 10; Time; 30 min; Incubation, luminescence evolution.
# (§18) 11; Detection; Luminescence; ViewLux uHTS Microplate Imager (PerkinElmer).
# (§19) NOTES (numbers refer to Sequence numbers above)
# (§20) 1, 2, 5. White Medium Binding Greiner 1536-well plates (Cat #789175-F, Greiner Bio-One, Monroe, NC); Reaction buffer: 50 mM Tris, pH 8.0, 3 mM MgCl2, 1 mM EDTA, 50 mM NaCl, 1 mM DTT, and 0.1 mg/mL BSA. Evaporation was prevented by covering assay plates with metal lids containing holes to allow gas diffusion.
# (§21) 1. Six SMMTase were profiled: HNMT, GNMT, PNMT, COMT, NNMT, GAMT
# (§22) 5. The corresponding substrate was used for each enzyme: HNMT - 5.3 uM Histamine; GNMT - >500 uM Glycine; PNMT - 16.2 uM Norephinephrine; COMT - 13.7 uM Norephinephrine; NNMT - 3.8 uM Nicotinamide; GAMT - 2.5 uM Guanidinoacetate.6, 8, 10. Room temperature
# (§23) 6. Final reaction conditions: 10 nM COMT, 5 uM SAM, 15 uM norepinephrine, 50 mM Tris, pH 8.0, 3 mM MgCl2, 1 mM EDTA, 50 mM NaCl, 1 mM DTT, and 0.1 mg/mL BSA; refer to tables 2 and S1 for specific timing.
# 8. […]
# [2] = biological target: Guanidinoacetate N-methyltransferase (Homo sapiens) (UniProt Q14353); details: purified enzyme, MTase-Glo SAH luminescence; measured here: GAMT inhibition; at 40 µM; stronger effect = lower value
# Excerpt: as §1, §2, §3, §4, §5, §6, §7, §8, §9, §10, §11, §12, §13, §14, §15, §16, §17, §18, §19, §20, §21, §22, §23
# 8. […]
# [3] = biological target: Histamine N-methyltransferase (Homo sapiens) (UniProt P50135); details: purified enzyme, MTase-Glo SAH luminescence; measured here: HNMT inhibition; at 40 µM; stronger effect = lower value
# Excerpt: as §1, §2, §3, §4, §5, §6, §7, §8, §9, §10, §11, §12, §13, §14, §15, §16, §17, §18, §19, §20, §21, §22, §23
# 8. […]
# [4] = biological target: Nicotinamide N-methyltransferase (Homo sapiens) (UniProt P40261); details: purified enzyme, MTase-Glo SAH luminescence; measured here: NNMT inhibition; at 40 µM; stronger effect = lower value
# Excerpt: as §1, §2, §3, §4, §5, §6, §7, §8, §9, §10, §11, §12, §13, §14, §15, §16, §17, §18, §19, §20, §21, §22, §23
# 8. […]
# [5] = biological target: Phenylethanolamine N-methyltransferase (Homo sapiens) (UniProt P11086); details: purified enzyme, MTase-Glo SAH luminescence; measured here: PNMT inhibition; at 40 µM; stronger effect = lower value
# Excerpt: as §1, §2, §3, §4, §5, §6, §7, §8, §9, §10, §11, §12, §13, §14, §15, §16, §17, §18, §19, §20, §21, §22, §23
# 8. […]
# % is set by controls: 0 for no effect and ±100 for the full control effect.
Compound,"activity change, negative = inhibition [1]","activity change, negative = inhibition [2]","activity change, negative = inhibition [3]","activity change, negative = inhibition [4]","activity change, negative = inhibition [5]"
CC(C)(C)c1cc2n(n1)CC(C)(C(=O)NC1CCCCC1)N(Cc1cccc(Cl)c1)C2=O (stereo not drawn),-5.56%,-4.39%,2.68%,-11.1%,-2.5%
N#Cc1cccc(CN2CCC(N(Cc3cccnc3)C(=O)Nc3ccccc3-c3ccccc3)CC2)c1,–,6.41%,–,-18.3%,-11.6%
Cc1nc(C)c(C(=O)N2CCC(N3C(=O)C4(CCCC4)C3c3scnc3C)CC2)s1 (stereo not drawn),-5.58%,-6.6%,-2.39%,-9.65%,-2.67%
CC1=C2C(=O)C=C(CO)C2C2OC(=O)C(CS(=O)(=O)O)C2C(OC(=O)Cc2ccc(O)cc2)C1 (stereo not drawn),-4.72%,0.607%,11.2%,-11.5%,-6.93%
CCC(C)NC(=O)c1ccc2c(=O)n(C(C)C)c3nn(Cc4ccc(Cl)cc4)c(=O)n3c2c1 (stereo not drawn),-3.52%,0%,1.81%,-3.07%,1.77%
COC(=O)N1CCC(n2ncc3c(N4CCOCC4)nc(-c4ccc(NC(=O)Nc5ccc(CO)cc5)cc4)nc32)CC1,-6.04%,7.56%,5.77%,-10.5%,3.67%
CN[C@@H](C)C(=O)N[C@H]1CN(C(=O)CC(C)C)CC[C@H]2CC[C@@H](C(=O)NC(c3ccccc3)c3ccccc3)N2C1=O,-5.54%,-4.99%,-0.293%,-18.5%,-1.6%
C=CC(=O)Nc1cc(-n2c(=O)ccc3cnc4ccc(-c5ccc(NS(C)(=O)=O)cc5)cc4c32)ccc1C,-35.1%,-19.2%,-0.494%,-25.5%,-16%
COc1ccccc1N1CCN(CCCCN2C(=O)c3ccccc3C2=O)CC1,-8.94%,0.45%,-4.21%,-11%,5.16%
O=C(Cn1nc(-c2ccccc2)c2ccccc21)N1CCN(c2cccc(C(F)(F)F)c2)CC1,1.77%,1.73%,10.8%,7.86%,2.83%
COCC1OC(OC(C)(C)C2CCC3(C)C=C(C4CCC5C4(C)CC(O)C4OC(C(C)(C)OC6OC(CO)C(O)C(O)C6NC(C)=O)CCC45C)CCC3O2)C(NC(C)=O)C(O)C1O (stereo not drawn),2.89%,15.9%,5.46%,3.2%,2.63%
COc1ccc(CNC(=O)C2(C)Cn3cnc(C(=O)NCc4ccccc4)c3C(=O)N2C2CC2)cc1 (stereo not drawn),3.19%,2.4%,15.5%,5.43%,10.6%
O=C(c1ccc(Cl)cc1)N1CCN(Cc2ccccc2-c2cccnc2)CC1,-6.72%,-5.3%,-6.56%,-13.4%,-5.45%
Cc1cc(CN2C[C@@H](CO)[C@H](NC(=O)C3CCC3)C2)n(C)n1,0.204%,2.89%,2.4%,0.337%,4.29%
N#Cc1ccc(O[C@@H]2COCC[C@H]2NC(=O)Cn2nnnc2N)cc1,-8.29%,-11%,-2.7%,-18.5%,-4.68%
CCC(C)NC(=O)c1ccc2c(=O)n(C(C)C)c3nn(CC(=O)c4ccc(F)cc4)c(=O)n3c2c1 (stereo not drawn),5.33%,0%,4.29%,2.13%,5.31%
C1=Cc2ccccc2C(=C2CCN(CCCCc3nn[nH]n3)CC2)c2ccccc21,-1.47%,11%,-9.09%,-46.1%,4.9%
O=C(NCC1CCN(Cc2ccccn2)C1)Nc1ccc(F)cc1 (stereo not drawn),-5.92%,-7.47%,-11.5%,-12.2%,-6.67%
CCCn1c(=O)c2ccc(C(=O)NC(C)C)cc2n2c(SCc3ccccc3)nnc12,6.44%,0%,6.42%,8.83%,8.24%
CC(=O)Nc1c2n(c3ccc(F)cc13)CC(C)(C(=O)NC1CCCCC1)N(Cc1cccs1)C2=O (stereo not drawn),-18.6%,-3.56%,-4.22%,-20.6%,-4.75%
O=C(N1CCC(Cc2nc(-c3ccc(F)cc3)no2)CC1)C1(c2ccccc2)CC1,-11.7%,-8.58%,-4.53%,-18.8%,-9.93%
CC1(C(=O)NC2CCCCC2)Cn2c(cc3occc32)C(=O)N1Cc1cccnc1 (stereo not drawn),-3.12%,-2.16%,9.02%,-0.304%,-3.03%
CC1CCC23COC(=O)C2=CC(O)CC3C1(C)CCc1ccoc1 (stereo not drawn),-1.73%,-7.2%,5.07%,-11%,-6.79%
COC1CC(=O)C23C(=O)NC(CC(C)C)C2C(C)C(C)=CC3/C=C(\C)CCC(O)C1O (stereo not drawn),0%,-0.677%,-0.639%,-11.6%,1.26%
CC1(C(=O)O)CCCC2(C)C3=CCC4CC3(CCC12)CC4CO (stereo not drawn),-1.22%,-5.24%,8.41%,-20.6%,-13.7%
Cc1cccc(CNC(=O)c2ncn3c2C(=O)N(C2CC2)C(C)(C(=O)NC2CCCC2)C3)c1 (stereo not drawn),-3.2%,0%,5.9%,-3.39%,-0.055%
CC1(C(=O)NC2CCCCC2)Cn2c(cc3ccccc32)C(=O)N1Cc1ccc(Cl)cc1 (stereo not drawn),-6.36%,-1.86%,3.21%,-3.63%,-3.08%
CCC(C)NC(=O)c1ccc2c(=O)n(C)c3nnc(SCC(=O)Nc4ccc(C)cc4)n3c2c1 (stereo not drawn),8.47%,0%,8.5%,11.6%,7.48%
